About 620 (0.23%) of roughly 270,000 compounds were called active. This list was built around the results that the source calls inconclusive (neither active nor inactive); the mix of calls is not that of the screen. The call rests on the fitted dose curve; in most records, active means well fitted inhibition curve with a large enough effect in the polarisation, with a control signal flat (not every such curve was filed as active); inconclusive means small, poorly fitted or top-dose-only effect, or effect the other way, or a change in a side signal; inactive means no such curve, though single readings can be large or run the other way; the % refers to the polarisation. A potency beside an inconclusive call is a rough fit, not a confirmed value. “Side channel” marks fits to a control or component signal instead of the main read-out.
biological target: Menin (Homo sapiens) (UniProt O00255); assay: qHTS Assay for Inhibitors Targeting the Menin-MLL Interaction in MLL Related Leukemias: Competition With Texas Red Labeled MLL-derived Mutant Peptide; conditions: fluorescence polarization; series mostly up to 61.6 µM; FP activity change, negative = inhibition: at the top concentration; on FP activity change, negative = inhibition: % of control where 0% means no effect
Potency means the concentration at half of the fitted maximal effect; tags describe the fitted curve by direction and shape or compound fluorescence and quenching.

Chain of UniProt O00255 (O00255 whole entry, looked up): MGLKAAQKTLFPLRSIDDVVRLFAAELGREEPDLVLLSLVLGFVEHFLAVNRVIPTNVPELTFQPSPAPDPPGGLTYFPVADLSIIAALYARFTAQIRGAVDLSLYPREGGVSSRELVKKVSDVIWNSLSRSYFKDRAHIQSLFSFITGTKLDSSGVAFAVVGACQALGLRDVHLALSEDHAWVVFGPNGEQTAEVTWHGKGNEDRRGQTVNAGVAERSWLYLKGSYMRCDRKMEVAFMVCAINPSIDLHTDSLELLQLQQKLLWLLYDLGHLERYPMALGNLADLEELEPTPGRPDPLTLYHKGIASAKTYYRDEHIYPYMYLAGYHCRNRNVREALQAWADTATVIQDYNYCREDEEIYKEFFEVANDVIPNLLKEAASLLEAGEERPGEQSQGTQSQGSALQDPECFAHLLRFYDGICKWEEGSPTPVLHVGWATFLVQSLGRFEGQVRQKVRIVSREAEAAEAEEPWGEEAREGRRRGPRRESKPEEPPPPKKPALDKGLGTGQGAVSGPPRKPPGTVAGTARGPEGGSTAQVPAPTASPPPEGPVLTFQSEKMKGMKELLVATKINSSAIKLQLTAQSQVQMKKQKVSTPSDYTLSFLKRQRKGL

**Q.** With `CCN(CC)C(=O)N[C@H]1C=C2c3cccc4[nH]cc(c34)C[C@@H]2N(C)C1` as the compound, how does the Potency read?
**A.** inconclusive: 14.1 µM [inhibitor, partial curve, poor fit]

**Q.** How did the “FP activity change, negative = inhibition” value turn out when `Cc1ccc(Cn2cc(C=O)c(-c3ccc(F)cc3)n2)cc1` was run?
**A.** inactive: 26.9%

**Q.** Which Potency does the source give for `CC(=O)c1ccc(OC(NC(=O)c2ccco2)C(Cl)(Cl)Cl)cc1` (configuration not stated) here?
**A.** inconclusive: 4.47 µM [inhibitor, single point]

**Q.** `O=C1C=CC(=O)C(Cl)=C1` was tested. Which Potency did it give?
**A.** inconclusive: 31.6 µM [quencher, side channel, single point]

**Q.** With `Cc1c(-c2cccc(Cl)c2)nc2ccccc2c1C(=O)N1CCC2(CC1)OCCO2` as the compound, how does the “FP activity change, negative = inhibition” value read?
**A.** inactive: -2.28%

**Q.** With `O=P(NS(=O)(=O)c1ccc(Br)cc1)(Oc1ccccc1)Oc1ccccc1` as the compound, how does the Potency read?
**A.** inconclusive: 17.8 µM [quencher, side channel, partial curve]

**Q.** `CCCOP(=O)(OCCC)C(Nc1cccc(C(F)(F)F)c1)c1ccc(C)cc1` (configuration not stated) was tested. Which Potency did it give?
**A.** inconclusive: 8.91 µM [fluorescent, side channel, partial curve]

**Q.** For `CC(C)(O)[C@H]1O[C@H]2CC[C@@]3(C)[C@@](O)(CC[C@H]4Cc5c([nH]c6ccccc56)[C@@]43C)C2=CC1=O`, which Potency is on record?
**A.** inconclusive: 25.1 µM [quencher, side channel, partial curve]

**Q.** `CN(C)C(=O)Oc1ccc(-c2cn3cc(C(F)(F)F)ccc3n2)cc1` was tested. Which “FP activity change, negative = inhibition” value did it give?
**A.** inactive: 0.081%

**Q.** `COc1ccccc1N=Nc1c(O)[nH]c(=S)[nH]c1=O` was tested. Which Potency did it give?
**A.** inconclusive: 25.1 µM [quencher, side channel, partial curve]

**Q.** `Cn1c(O)c(/C=C2\C=Nc3ccc(Br)cc32)c(=O)n(C)c1=O` was tested. Which Potency did it give?
**A.** inconclusive: 39.8 µM [inhibitor, single point]

**Q.** `COc1cc(N)c(Cl)cc1C(=O)N[C@@H]1CN2CCC1CC2` was tested. Which Potency did it give?
**A.** inconclusive: 44.7 µM [inhibitor, partial curve]

**Q.** How did the Potency turn out when `COC(=O)COc1ccc(/C=C2\C(=O)NC(=S)N(c3ccc(C)cc3)C2=O)cc1OC` was run?
**A.** inconclusive: 10 µM [quencher, side channel, partial curve]

**Q.** How did the Potency turn out when `CCOc1ccccc1CNCCc1ccc2c(c1)OCO2` was run?
**A.** inconclusive: 39.8 µM [fluorescent, side channel, single point]

**Q.** `COC(=O)[C@]1(C)CC[C@@]2(C)CC[C@@]3(C)C4=CC=C5C(=CC(=O)C(O)=C5C)[C@@]4(C)CC[C@@]3(C)C2C1` (some centres not stated) was tested. Which “FP activity change, negative = inhibition” value did it give?
**A.** inactive: 29.9%

**Q.** `Cc1cc(OCC(=O)OC(C)C)c2c3c(c(=O)oc2c1)CCCC3` was tested. Which Potency did it give?
**A.** inconclusive: 22.4 µM [fluorescent, side channel, single point]

**Q.** Which Potency does the source give for `Cc1ccc(Oc2cc(NN3CCCCC3)c([N+](=O)[O-])cc2[N+](=O)[O-])c([N+](=O)[O-])c1` here?
**A.** inconclusive: 10 µM [quencher, side channel, partial curve]

**Q.** With `O=c1[nH]c(=O)n(Cc2ccccc2Cl)c(O)c1/C=C1/C=CC=N1` as the compound, how does the Potency read?
**A.** inconclusive: 35.5 µM [quencher, side channel, single point]

**Q.** Which Potency does the source give for `CN1C(=O)C(=Cc2ccc(-c3cccc(Cl)c3)o2)C(=O)N(C)C1=O` here?
**A.** inconclusive: 39.8 µM [quencher, side channel, single point]

**Q.** For `Cn1c(=O)c2c(nc(N/N=C/c3c(O)n(-c4ccccc4)c(=S)[nH]c3=O)n2C)n(C)c1=O`, which “FP activity change, negative = inhibition” value is on record?
**A.** inactive: 1.15%

**Q.** How did the Potency turn out when `O=C(CSc1nnnn1-c1ccccc1)Nc1ccc(N2CCOCC2)c(Cl)c1` was run?
**A.** inconclusive: 28.2 µM [quencher, side channel, single point]

**Q.** With `COC(=O)C1=Nc2ccccc2/C1=C\c1c(O)n(-c2cc(OC)ccc2OC)c(=O)[nH]c1=O` as the compound, how does the Potency read?
**A.** inconclusive: 39.8 µM [quencher, single point]

**Q.** How did the Potency turn out when `N=C(N)c1c(O)n(C2CCCCC2)c(=O)n(C2CCCCC2)c1=O` was run?
**A.** inconclusive: 25.1 µM [quencher, side channel, partial curve]

**Q.** With `N#C/C(=C\c1ccc([N+](=O)[O-])cc1)c1nc(C2CC2)cs1` as the compound, how does the Potency read?
**A.** inconclusive: 28.2 µM [quencher, side channel, single point]

**Q.** `CNc1cc(Cl)c2nonc2c1[N+](=O)[O-]` was tested. Which Potency did it give?
**A.** inconclusive: 12.6 µM [quencher, side channel, partial curve]

**Q.** `Cc1cc(/C=C2\C(=O)NC(=O)N(Cc3ccccc3Cl)C2=O)c(C)n1-c1ccc(C(=O)O)cc1` was tested. Which Potency did it give?
**A.** inconclusive: 22.4 µM [quencher, side channel, single point]

**Q.** How did the Potency turn out when `COc1ccc(-n2c(/C=C/c3ccc(O)cc3)nc3ccccc3c2=O)cc1` was run?
**A.** inconclusive: 28.2 µM [quencher, side channel, single point]

**Q.** For `CCN(CC)S(=O)(=O)c1ccc(C(=O)NC2CN3CCC2CC3)cc1` (configuration not stated), which Potency is on record?
**A.** inconclusive: 14.1 µM [inhibitor, partial curve]

**Q.** For `CC(=O)Nc1nnc(S(N)(=O)=O)s1`, which Potency is on record?
**A.** inconclusive: 8.91 µM [inhibitor, single point]

**Q.** For `COc1cc(CNC(=O)CCCC/C=C/C(C)C)ccc1O`, which Potency is on record?
**A.** inconclusive: 158 µM [inhibitor, partial curve]

**Q.** For `Cc1ccc(NC(=O)COC(=O)CCc2c[nH]c3ccccc23)cc1[N+](=O)[O-]`, which Potency is on record?
**A.** inconclusive: 11.2 µM [quencher, side channel, partial curve]

**Q.** Which Potency does the source give for `O=P(NCc1ccccc1)(Oc1ccccc1)Oc1ccccc1` here?
**A.** inconclusive: 8.91 µM [fluorescent, side channel, partial curve]

**Q.** For `O=c1[nH]c(=O)n(Cc2ccccc2Cl)c(O)c1C=Nc1ccc(F)cc1`, which Potency is on record?
**A.** inconclusive: 20 µM [inhibitor, single point]

**Q.** With `COc1ccccc1N1CCN(S(=O)(=O)CCNC(=O)C2CC(=O)N(c3ccccc3)C2)CC1` (configuration not stated) as the compound, how does the Potency read?
**A.** inconclusive: 0.398 µM [quencher, side channel, full curve]

**Q.** With `COCCOC(=O)c1c(C)n(C)c2ccc(OC(=O)N(C)C)cc12` as the compound, how does the “FP activity change, negative = inhibition” value read?
**A.** inactive: -12.9%

**Q.** Which “FP activity change, negative = inhibition” value does the source give for `C=C(C)[C@H]1CN[C@H](C(=O)O)[C@@H]1CC(=O)O` here?
**A.** inactive: -4.25% [at 24.8 µM]

**Q.** For `C=C(C)C1CCC(C)=CC1c1c(O)cc(O)cc1CCCCC` (configuration not stated), which Potency is on record?
**A.** inconclusive: 25.1 µM [quencher, side channel, partial curve]
